# Laboratory results taken from PMC4336329 (PLoS ONE, 2015).
# Among all 310,000 compounds or so, about 2,200 (0.71%) showed an effect of 50% or more. The effect is printed as a negative number. The list shows a part of the results.
# Biological target: human ether-à-go-go-related gene (hERG) potassium channel (human, UniProt Q12809)
# Experiment: primary screen, population patch clamp on CHO cells stably expressing hERG
# Sequence of human ether-à-go-go-related gene (hERG) potassium channel (Q12809 whole entry, looked up): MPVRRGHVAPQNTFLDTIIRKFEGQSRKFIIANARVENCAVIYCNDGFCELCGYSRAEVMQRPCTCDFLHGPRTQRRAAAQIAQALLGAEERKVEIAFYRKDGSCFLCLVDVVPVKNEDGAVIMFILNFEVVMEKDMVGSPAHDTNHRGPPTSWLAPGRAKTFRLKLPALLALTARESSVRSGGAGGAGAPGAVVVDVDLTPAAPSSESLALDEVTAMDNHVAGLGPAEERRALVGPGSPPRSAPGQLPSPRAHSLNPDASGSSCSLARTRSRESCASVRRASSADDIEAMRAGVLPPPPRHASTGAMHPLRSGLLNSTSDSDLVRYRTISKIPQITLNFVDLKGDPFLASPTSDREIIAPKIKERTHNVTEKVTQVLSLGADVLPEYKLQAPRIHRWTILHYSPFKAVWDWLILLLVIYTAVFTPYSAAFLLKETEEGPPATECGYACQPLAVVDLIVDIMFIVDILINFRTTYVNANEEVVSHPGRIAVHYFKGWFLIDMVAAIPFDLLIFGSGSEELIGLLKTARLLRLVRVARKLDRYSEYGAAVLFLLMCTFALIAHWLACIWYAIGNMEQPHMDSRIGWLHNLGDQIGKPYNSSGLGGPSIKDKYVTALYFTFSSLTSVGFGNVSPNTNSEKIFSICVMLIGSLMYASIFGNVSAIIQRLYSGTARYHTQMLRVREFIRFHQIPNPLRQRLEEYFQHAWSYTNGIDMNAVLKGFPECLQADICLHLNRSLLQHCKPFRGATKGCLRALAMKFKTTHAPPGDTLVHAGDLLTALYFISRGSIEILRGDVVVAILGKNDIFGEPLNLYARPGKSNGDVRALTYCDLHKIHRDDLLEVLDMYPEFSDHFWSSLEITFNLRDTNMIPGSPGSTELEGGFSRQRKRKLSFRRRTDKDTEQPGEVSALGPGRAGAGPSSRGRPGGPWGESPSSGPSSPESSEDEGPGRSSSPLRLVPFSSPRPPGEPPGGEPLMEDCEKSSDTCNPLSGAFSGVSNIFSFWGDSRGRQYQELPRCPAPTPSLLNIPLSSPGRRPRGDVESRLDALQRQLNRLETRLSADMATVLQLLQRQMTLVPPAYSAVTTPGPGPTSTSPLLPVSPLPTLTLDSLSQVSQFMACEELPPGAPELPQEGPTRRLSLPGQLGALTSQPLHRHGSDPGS
row,SMILES,"hERG current change (%, negative = inhibition) at 1uM [%]"
1,O=C1NC2=C(CCc3ccccc32)C(c2ccc(Br)cc2)N1 (centres unmarked),-1.05
2,COc1ccc2[nH]c(=O)c(CN(Cc3ccc4c(c3)OCO4)C(C)=O)cc2c1,-2.67
3,NC(=O)CSc1nnc(-c2cnccn2)n1-c1ccccc1,3.73
4,Cc1c(O)c(CN2CCCCC2)cc2c1oc(=O)c1ccccc12,11.7
5,CC1(C)c2ccccc2N2CCC(=O)NC21/C=C/c1ccco1 (centres unmarked),12.7
6,CSc1nc(N)nc(C2CC2)n1,-2.75
7,Cc1ccccc1OCCn1c(=O)oc2ccccc21,5.2
8,CCOC(=O)[C@@H]1[C@H]2COc3ccc(Br)cc3[C@H]2N2C(=O)N(c3ccc(Cl)cc3)C(=O)[C@@]12C,16.5
9,Cl.Cn1cccc1CNCCc1ccc(F)cc1,6.23
10,O=C(Nc1ccccc1-c1ccccc1)c1ccc(=O)[nH]n1,4.54
11,CCCc1cc(=O)[nH]c(SCC(=O)Nc2nc3ccc(OCC)cc3s2)n1,13.9
12,O=S(NCc1ccccc1)C12CC3CC(CC(C3)C1)C2 (centres unmarked),11.9
13,O=C(NC1CCCCC1)c1cc2ccccc2cc1O,-4.58
14,Cc1ccc(-n2nnnc2SCC(=O)NC2CCCc3ccccc32)c(C)c1 (centres unmarked),3.18
15,CC1CCN(S(=O)(=O)c2cccc(C(=O)NCc3cccs3)c2)CC1,-2.23
16,O=C(OCC(=O)N1CCN(C(=O)c2ccco2)CC1)c1ccccc1Cc1ccccc1,-14.2
17,CCC(CC)c1nnc(NC(=O)CS(=O)(=O)Cc2ccccc2)s1,6.26
18,O=C(/C=C/c1ccccc1[N+](=O)[O-])NC1CCCC1,2.89
19,OCC1(Cc2ccccc2)CCCN(Cc2c[nH]c3ccccc23)C1 (centres unmarked),8.42
20,O=C(Nc1cccc([N+](=O)[O-])c1)C1COc2ccccc2O1 (centres unmarked),-14
21,CCCCCOc1ccc(/C=c2\sc3nc(=O)c(-c4ccccc4)nn3c2=O)cc1OC,2.97
22,CC(NC(=O)COc1ccc([N+](=O)[O-])cc1)c1ccccc1 (centres unmarked),-13.1
23,Cc1cccc(NC(=O)C2CCN(S(=O)(=O)c3c(C)c(C)cc(C)c3C)CC2)n1,10.2

row,SMILES,"hERG current change (%, negative = inhibition) at 1uM [%]"
1,Cc1ccc(C)c(-n2c(SCC(=O)NC(C(=O)O)C(C)C)nnc2-c2cccc(Cl)c2)c1 (centres unmarked),6.28
2,COc1nn(-c2ccccc2)c(=O)c(Cl)c1Cl,14.4
3,COc1ccc(CNc2cc(C)ccn2)c(O)c1,5.09
4,CCc1ccc(C(=O)C[n+]2cccc3cc(OC)ccc32)cc1.[Br-],6
5,O=C(Cn1cnc2sc3c(c2c1=O)CCCC3)NCC(=O)Nc1c(F)cc(F)cc1Br,11.1
6,COc1ccccc1NC(=O)CCc1nc(-c2cccs2)no1,-2.71
7,CC1CCCCN1CC(O)c1c[nH]c2ccccc12 (centres unmarked),12.2
8,CCCC(=O)NC(=S)N1CCN(c2ccc([N+](=O)[O-])cc2)CC1,-5.98
9,O=C(NCCC(=O)N1CCC2(CC1)NCCc1[nH]cnc12)c1cccc(Br)c1,3.97
10,COc1ccc(C(=O)N/N=C2\SCC(=O)N2Cc2ccc3c(c2)OCO3)c(OC)c1,7.32
11,CC(=O)Nc1ccccc1C(=O)C(=O)Nc1cccc(C(=O)N2CCC3(CC2)OCCO3)c1,6.83
12,Cc1ccc(NC(=O)CCN2C(=O)C3CC=CCC3C2=O)cc1Cl (centres unmarked),6.28
13,C=CCN1C(=O)C2(OCCCO2)c2cccc(Cl)c21,19.9
14,Nc1ccc(-c2nc3cc([N+](=O)[O-])ccc3o2)cc1,10
15,CCOc1ccc(C(=O)COC(C)=O)cc1,9.74
16,CSc1ncc(Cl)c(C(=O)Nc2nnc(SC/C=C/c3ccccc3)s2)n1,4.26
17,O=C(NCc1ccco1)c1ccc(Cn2c(=O)c3sccc3n(Cc3ccc(F)cc3)c2=O)cc1,12.9
18,COc1ccc(C2(c3cccc(O)c3OC)CCN(C(C)=O)CC2)cc1O,17.8
19,COc1ccc(C2COc3cc(O)ccc3C2)c(OC)c1O (centres unmarked),1.75
20,CC(=O)Nc1ccc(NC(=S)NC(=O)c2ccc([N+](=O)[O-])cc2)cc1,11
21,O=C(Cc1c(F)cccc1Cl)Nc1ccon1,-1.31
22,COC(=O)NCCOC(=O)N(O)c1ccc(Br)cc1,15.2
23,Cc1cc(C)n2c(Br)c(CSc3nc4ccccc4s3)nc2n1,-19.3

row,SMILES,"hERG current change (%, negative = inhibition) at 1uM [%]"
1,Cc1cccc(NC(=O)CSc2nc(COc3ccccc3)nc3ccccc23)c1C,11.5
2,Cc1ccc(OCC(=O)NCCCNC(=O)c2ccccn2)cc1C,8.1
3,CC1(C)Oc2ccc3ccc(=O)oc3c2/C(=C/Nc2ccccc2)C1=O,11.8
4,CSc1nc(-c2ccc(Cl)cc2Cl)[nH]c(=O)c1C#N,5.2
5,CCOc1ccccc1NC(=O)c1ccc2[nH]c(C)c(C)c2c1,14.1
6,CC(=O)Nc1nc(CC(C)C)cc2c1c(=O)oc1ccccc12,13.9
7,CN(C)CCC[C@]1(c2ccc(F)cc2)OCc2cc(C#N)ccc21,4
8,COc1cc(C(=O)OC2CCCCC2=O)cc(OC)c1C (centres unmarked),14.2
9,CCCCC(CCCC)=N/N=C/c1c(O)n(CC)c2cc(C3=NNC(=O)CC3)ccc12,8.92
10,Cc1cc(C)c2cc(CN(CCO)C(=O)Nc3ccc(Cl)cc3)c(=O)[nH]c2c1,3.03
11,Cc1ccc2[nH]c3c(=O)n(CCN4CCOCC4)cnc3c2c1,6.2
12,CC(Sc1cccc[n+]1[O-])C(=O)Nc1ccc([N+](=O)[O-])cc1Cl (centres unmarked),14.8
13,CSc1ccc(C(=O)C2CCCN(C(=O)c3cccc(N4CCOCC4)c3)C2)cc1 (centres unmarked),7.13
14,O=C(CSc1nc2c(c(=O)n1-c1ccccc1)SCC2)NCC1CCCO1 (centres unmarked),22.4
15,O=C(CSCc1ccc(Cl)cc1)Nc1ccc(S(=O)(=O)N2CCOCC2)cc1,6.24
16,CCOc1ccc(NS(=O)(=O)c2ccc(C(=O)NCc3cccnc3)cc2)cc1,3.77
17,Cc1cccc(C)c1NC(=O)c1ccc(-n2cncn2)nc1,-4.02
18,O=C1O/C(=C\c2ccccc2)c2ccccc21,0.366
19,COc1ccc(C2C(C(=O)N3CCCCC3)CCC(=O)N2c2cc(OC)c(OC)c(OC)c2)cc1 (centres unmarked),13.4
20,COc1ccc(C2=NN(Cc3c(F)cccc3Cl)C(=O)CC2)cc1,4.06
21,CCOC(=O)c1ccc(NC(=O)CSc2nnc(CCc3ccc(C)o3)n2-c2ccccc2)cc1,4.53
22,COc1ccc(S(=O)(=O)c2c(O)c3ccc(C(=O)Nc4cccc(F)c4)cc3[nH]c2=O)cc1,11
23,O=c1cc(CSc2ccccc2)nc(-c2ccncc2)[nH]1,13.6

row,SMILES,"hERG current change (%, negative = inhibition) at 1uM [%]"
1,Cc1ccc(C(C)C)c(OCC(=O)N2CCN(c3ncccn3)CC2)c1,10
2,CN1CCN(C(=O)c2cc(S(=O)(=O)Nc3ccccc3F)c(Cl)cc2Cl)CC1,6.49
3,O=C1CN(C(=O)c2ccccc2F)c2ccccc2N1,11.9
4,CCCc1nnc(NC(=O)CCC(=O)N2CCCCCC2)s1,8.94
5,COc1ccc(CCNC(=O)CSc2nc(O)c(C(C)C)c(=O)[nH]2)cc1OC,12.5
6,COC(=O)C1=C(c2cccc(OC)c2OC)C[C@@H]2CC[C@H]1N2C(=O)NCc1ccc(C(F)(F)F)cc1,6.08
7,COc1ccc(C2C(C(=O)N3CCC(C(N)=O)CC3)CC(=O)N2c2ccc(OC)cc2)cc1 (centres unmarked),2.44
8,O=C(Cn1cnc2c(oc3ccccc32)c1=O)NCC1CCCO1 (centres unmarked),9.36
9,Clc1ccc(-c2nnc3n2CCCCC3)cc1,2.2
10,CCCCCCNC1=NCCS1,3.28
11,CCC(CC)C(=O)Nc1nc(-c2ccc3c(c2)CCN3C(=O)C2CC2)c(C)s1,17.6
12,O=C(Nc1cccnc1)c1ccc(COc2ccccc2Cl)o1,4.59
13,COc1ccc2nc(NC(=O)c3ccc(NS(=O)(=O)c4cccs4)cc3)sc2c1,12.5
14,COc1ccc(/C=C2\SC(=O)N(CCn3cnnn3)C2=O)cc1,2.24
15,COc1cc(OC)c(NC(=O)Cn2cnc3sc(C)c(S(=O)(=O)N4CCOCC4)c3c2=O)cc1Cl,10.1
16,COc1cc(-c2cc(C(=O)N(C)Cc3ccccc3)c3ccccc3n2)cc(OC)c1OC,12
17,Cc1cc(/C=C2/NC(=O)NC2=O)c(C)n1-c1cccnc1,15.7
18,CCN(CC)c1ccc2c(c1)C(=O)N(C)C2=O,12.7
19,Cc1cccc(OCC(=O)OC2CCN(C)CC2)c1.Cl,10.2
20,CCCCC(=O)Nc1nnc(S(=O)(=O)N2CCCc3ccccc32)s1,18.8
